In PubChem BioAssay AID1346428 (National Center for Advancing Translational Sciences (NCATS), 2018) one finds activation data, which are given here for 84 molecules.

The whole screen tested about 48,000 compounds, of which about 1,200 (2.5%) were called active. About 2% were inconclusive and are not listed.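 The calls were made as follows: active = activation of at least 60% and not above a set upper limit (about 1 call in 100 departs from these limits); inconclusive = activation of 40% to 60%, or above that upper limit; inactive = activation under 40%.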 This is one part of the list.

The target in this assay is Probable G-protein coupled receptor 32 (Homo sapiens) (UniProt O75388). Briefly: qHTS for Agonists of Human Resolvin D1 Receptor DRV1. To be noted: CHO-K1 GPR32 beta-arrestin PathHunter luminescence, 90 min; at 76.9 µM; hits give high values; zero percent set by DMSO-only wells. The gist of the method: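 Using DMSO wells as EC0, agonist-induced signal was taken as chemiluminescence from beta-Gal reconstituted upon beta-arrestin recruitment to GPR32 in CHO-K1 cells after 90 min compound treatment.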
Chain of UniProt O75388 (O75388 whole entry, looked up): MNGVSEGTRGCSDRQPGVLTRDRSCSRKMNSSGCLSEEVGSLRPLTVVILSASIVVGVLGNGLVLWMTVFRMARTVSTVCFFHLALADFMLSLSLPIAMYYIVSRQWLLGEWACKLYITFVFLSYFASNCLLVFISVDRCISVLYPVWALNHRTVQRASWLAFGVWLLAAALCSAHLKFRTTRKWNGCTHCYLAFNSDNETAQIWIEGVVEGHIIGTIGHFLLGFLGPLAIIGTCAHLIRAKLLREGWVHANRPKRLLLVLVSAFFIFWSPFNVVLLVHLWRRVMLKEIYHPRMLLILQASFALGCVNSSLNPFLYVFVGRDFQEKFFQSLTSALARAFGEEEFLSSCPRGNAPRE
Take `Cc1nn(-c2ccccc2)c2c1N(CC(=O)N1CCN(c3ccc(Cl)cc3)CC1)C(=O)CS2`: the activation was inactive: 2.49%. In the case of `Cc1nn(-c2ccccc2)c2c1N(CCCC(=O)NC(C)c1ccccc1)C(=O)CS2` (centres undefined), the activation is inactive: -1.75%. Under `CCc1ccc(NC(=O)c2cc(S(=O)(=O)NC3CCCCCC3)ccc2F)cc1` stands inactive: -16.7%; under `COc1cc(NC(=O)c2noc3c2CC(C)CC3)c(OC)cc1Cl` (centres undefined), inactive: -10.5%. As for `Cc1ccc(S(=O)(=O)c2cn(Cc3ccccc3)c3cc(N4CCOCC4)c(F)cc3c2=O)cc1`, the activation was inactive: -6.98%. Consider `CCc1ccc(CNC(=O)CCn2nc(C)c3c(C)n(-c4ccccc4)nc3c2=O)cc1`, for which the activation was inactive: -7.02%. Under `Cc1nn(CCCC(=O)Nc2ccccc2C(F)(F)F)c(=O)c2nn(-c3ccccc3)c(C)c12` stands inactive: 2.28%; under `COc1ccc(-n2c(SCCC(C)C)nc3sc4c(c3c2=O)CC(C(C)C)OC4)cc1` (centres undefined), inactive: -3.1%. As to `CC1CCC(NC(=O)c2ccc(CSc3nc4ccncc4n3Cc3ccc(F)cc3)cc2)CC1` (centres undefined), the activation is inactive: 4.96%. Consider `COc1ccc(C(CC(=O)Nc2ncccc2C)N2Cc3ccccc3C2=O)cc1OC` (centres undefined), for which the activation was inactive: 3.96%. As to `O=C(Nc1ccccc1)c1cccc(N2CCCS2(=O)=O)c1`, the activation was inactive: 31.6%.

Take `Cc1cc(C)n2nc(CNC(=O)c3ccc(Cl)cc3)nc2n1`: the activation is inactive: 5.47%. Under `Cc1nn2c(-c3ccccc3)cc(-c3ccccc3)nc2c1-c1ccc(Cl)cc1` stands inactive: 5.37%.

On to `O=C(Nc1cc(Cl)cc(Cl)c1)c1cc(S(=O)(=O)NC2CCCC2)ccc1F`, for which the activation was inactive: -7.96%. As to `Cc1c(Cl)cccc1NC(=O)CCS(=O)(=O)c1ccc2c(c1)CC(C)N2C(=O)C1CC1` (centres undefined), the activation was inactive: -8.52%. With `COc1ccc(CN(C)c2ccc(-c3nc(-c4ccc(OC)c(OC)c4)no3)cc2[N+](=O)[O-])cc1`, the activation is inactive: -13%. Turning to `CCOc1ccc2nc(Cl)c(C3CC(c4ccc(C)cc4)=NN3C(=O)CCC(=O)O)cc2c1` (centres undefined), the activation is inactive: 2.95%. Take `Cc1cccc(N2CCN(C(=O)C3CCN(C(=O)c4cc5sccc5n4C)CC3)CC2C)c1` (centres undefined): the activation is inactive: 37.5%. `CCOc1ccccc1CNCc1c(C(=O)O)c(C)n(Cc2ccc(C)cc2)c1C`: the activation is inactive: 7.41%.

For `CN1CCc2nc3sc(C(=O)c4ccc(F)cc4)c(N)c3cc2C1`, the activation was inactive: -31%. For the molecule `COc1cccc(-c2nnc(SCC(=O)N(C)C3CCCCC3)o2)c1`, the activation was active: 71.7%. For `CCC(C)S(=O)(=O)c1oc(-c2cccs2)nc1S(=O)(=O)c1ccccc1` (centres undefined), the activation is inactive: -14.2%. Under `COc1cn(CC(=O)Nc2cc(C)cc(C)c2)c(CN2CCCCC2)cc1=O` stands inactive: -14.3%. As for `CCOc1ccc(CCNC(=O)Cn2c(-c3cccs3)cc3ccccc32)cc1`, the activation is inactive: -15%. As for `CN1C(=O)c2cccc3c(S(=O)(=O)Nc4cccc(C(=O)O)c4)ccc1c23`, the activation is inactive: -18.1%. Under `CCOc1ccc(NC(=O)CN(Cc2ccccc2)S(=O)(=O)c2ccc3nc(C)sc3c2)cc1` stands inactive: -21.4%; under `Cc1ccc2c(c1)c1c(c(=O)n(Cc3ccccc3)c(=O)n1Cc1ccccc1F)n2C`, inactive: -6.65%; under `CN(c1ccc(F)cc1)S(=O)(=O)N1CCCC(C(=O)NCc2ccccc2Cl)C1` (centres undefined), inactive: -6.7%.

On to `CCN(CC)S(=O)(=O)c1ccc(OC)c(NC(=O)c2sc3ccccc3c2Cl)c1`, for which the activation was inactive: 1.45%. Consider `CCOc1ccc(N2CC(NC(=O)c3ccc(Cl)cc3)CC2=O)cc1` (centres undefined), for which the activation was inactive: -1.62%.

In the case of `Cc1cccc(NC(=O)c2oc3ccccc3c2NC(=O)c2cc(=O)c3ccccc3o2)c1`, the activation is inactive: 0.567%.

As for `CCOC(=O)N1CCc2c(sc3c2c(=O)n(Cc2ccccc2)c(=O)n3CC(=O)Nc2ccc(F)cc2)C1`, the activation is inactive: -16.5%. The result for `CNC(=O)CN1C(=O)COc2ccc(S(=O)(=O)N3CCCCCC3)cc21` reads inactive: -1.5%.

As to `NC(CO)(CO)CO`, the activation was inactive: 3.91%. Consider `O=C(C1CCC1)N1CCCc2cc(S(=O)(=O)N3CCN(c4cccc(Cl)c4)CC3)ccc21`, for which the activation was inactive: -23.8%. For the molecule `CCOc1ccc(-n2ccnc2SCC(=O)Nc2cc(C)ccc2C)cc1`, the activation was inactive: -1.49%. Take `COc1cccc(-n2c(SCc3cccc(C)c3)nc3c([nH]c4ccccc43)c2=O)c1`: the activation is inactive: -43.4%. On to `CCOCc1cc(CN2CCN(c3cccc(C(F)(F)F)c3)CC2)c(O)c2ncccc12`, for which the activation is inactive: 21.8%. For `Cc1ccc(C)c(NC(=O)C(=O)NCCCN2CCOCC2)c1`, the activation was inactive: -2.96%. `Cc1onc(-c2ccccc2Cl)c1C(=O)Oc1ccc(Cl)cc1Cl`: the activation is inactive: -1.84%.

As to `CCOc1ccccc1NC(=O)COC(=O)CC(C)(C)CC1=NS(=O)(=O)c2ccccc2N1`, the activation was active: 83.4%. In the case of `O=C(NCCCN1CCN(c2ccccc2)CC1)c1sc2ncccc2c1-n1cccc1`, the activation was inactive: -5.39%. As for `CCOc1ccc(CCNC(=O)c2cnc3c(-c4ccc(F)cc4)c(C)nn3c2C)cc1`, the activation is inactive: -4.97%. In the case of `COc1cc(S(=O)(=O)NCCc2c(C)[nH]c3ccc(C)cc23)ccc1Br`, the activation is inactive: -4.92%. Under `Nc1ncc(S(=O)(=O)NCc2ccccc2)cn1` stands inactive: -4.69%; under `COc1ccc(N(C(=O)c2ccccc2C)S(=O)(=O)c2ccc(Cl)cc2)cc1`, inactive: -21.4%; under `O=C(NCCc1nc2ccccc2n1Cc1ccccc1F)c1ccc(F)cc1`, inactive: -9.27%. Consider `CN1C(C(=O)Nc2cccc(O)c2)=CC(c2cccs2)=NS1(=O)=O`, for which the activation is inactive: 1.78%.

Regarding `COc1ccc(C(=O)c2cn(Cc3ccccc3)c3ccccc3c2=O)cc1OC`, the activation is inactive: -16.2%. Regarding `Cc1ccc(CNC(=O)c2ccc3c(c2)CCN3S(=O)(=O)c2ccc(Br)cc2)cc1`, the activation was inactive: -4.01%.

As for `COc1ccc(C2CC(=O)c3cc(-c4nc(-c5cccc([N+](=O)[O-])c5)cs4)c(=O)n(-c4ccccc4N)c3C2)cc1` (centres undefined), the activation was inactive: 3.05%. Under `COC(=O)c1ccc(NC(=O)Cn2c(=O)oc3ccccc32)cc1` stands inactive: -7.05%. `Cc1nc2ccn(Cc3ccco3)c(=O)c2cc1C(=O)NCc1ccc(Cl)cc1`: the activation was inactive: -17%.

With `NC(=O)c1cc(S(=O)(=O)NCc2cccc(Br)c2)cs1`, the activation is inactive: 10.2%.

Turning to `CCN(c1ccc(OC)cc1)S(=O)(=O)c1ccc2[nH]c3c(c2c1)CCCCC3`, the activation is inactive: 11.4%. Under `COc1ccc(N2CC(NC(=O)C3CCCCC3)CC2=O)cc1` (centres undefined) stands inactive: -1.81%; under `CCn1c(SCC(=O)Nc2cc(C)ccc2F)nnc1-c1ccccc1O`, active: 82.1%; under `Clc1ccc(C(Cn2ccnc2)OCc2c(Cl)cccc2Cl)c(Cl)c1` (centres undefined), inactive: -107%. The result for `COc1ccc(CC(=O)N2CC(=O)Nc3ccc(F)cc3C2c2ccccc2)cc1` (centres undefined) reads inactive: -10.2%. Consider `CCOC(=O)CNC(=O)N1CCN(S(=O)(=O)c2ccc3c(ccn3C)c2)CC1`, for which the activation is inactive: -5.52%. Consider `CCCOc1ccc(C2c3c(oc4ccccc4c3=O)C(=O)N2c2nnc(C(C)C)s2)cc1` (centres undefined), for which the activation is inactive: 3.12%. The result for `CC(=O)c1ccc(NC(=O)C2CCN(S(=O)(=O)c3ccc4[nH]c5c(c4c3)CCCCC5)CC2)cc1` reads inactive: -5.23%.

Regarding `Cc1ccccc1CNC(=O)Cn1c(=O)c2cccn2c2cccnc21`, the activation was inactive: -16.1%. For the molecule `COc1ccccc1CNC(=O)c1ccc(N2CCCC2)c(NC(=O)NCc2ccc(C)cc2)c1`, the activation was inactive: -29.9%. Turning to `COc1ccc(C2=NC(c3ccccc3)=Nc3ccc(C)cc3N2)cc1`, the activation is inactive: -10.9%. The result for `CCc1ccc(CNC(=O)C2CCN(c3nn4cc(-c5ccc(OC)cc5)nc4s3)CC2)cc1` reads inactive: 0.276%; that for `COC(=O)c1ccccc1NC(=O)c1ccc(CN2CC(=O)N3CCCCC3C2=O)cc1` (centres undefined), inactive: -13.7%; that for `COc1ccc(NC(=O)CSc2nnc(-c3ccncc3)n2-c2ccccc2)cc1`, inactive: 35.1%.

As to `CN1CCN(C(=O)c2ccc3c(c2)N(Cc2ccc(F)cc2)C(=O)c2ccccc2S3(=O)=O)CC1`, the activation is inactive: -5.38%. As to `COc1ccccc1N1CCN(CC(O)COc2ccc(Cl)c(C)c2)CC1` (centres undefined), the activation was active: 118%. As to `O=C(CSc1n[nH]c(-c2ccc(F)cc2)n1)N1CCN(c2ccc(F)cc2)CC1`, the activation is inactive: -4%.

`CCOC(=O)c1cc(S(=O)(=O)Nc2ccccc2)[nH]n1`: the activation is inactive: 2.31%. With `CCC(C)NC(=O)c1c2c(nc3ccccc13)C(=O)N(C1CCCCC1)C2` (centres undefined), the activation is inactive: 8.41%. As to `COc1ccc(C(=O)Nc2ccc3oc(-c4cccc5c(Br)cccc45)nc3c2)cc1`, the activation was inactive: 46.8%. Turning to `CCN1CCc2c(sc(NC(=O)c3ccc(S(=O)(=O)N4CCCC(C)C4)cc3)c2C(=O)OC)C1` (centres undefined), the activation was inactive: 13.8%. Regarding `O=C(CNC(=O)c1ccc(F)cc1)OCc1cc(=O)n2ccsc2n1`, the activation was inactive: 0%. The result for `O=S1(=O)c2ccccc2N(Cc2ccccc2F)c2ccccc21` reads inactive: -13.3%; that for `CCCCN(C)C(=O)c1ccc2c(=O)n3nc(Nc4cc(C)ccc4C)sc3nc2c1`, inactive: 0.396%; that for `Cc1ccccc1Cn1c(CN2CCC(C(=O)NCc3ccc(Cl)cc3)CC2)cc2ccccc21`, inactive: -27.1%. In the case of `Cc1c(Cl)cccc1NC(=O)C(=O)NCCc1csc(-c2ccc(C(F)(F)F)cc2)n1`, the activation was inactive: -0.872%. Turning to `O=C(NCc1ccc2c(c1)OCO2)c1ccc2c(c1)N(Cc1c(F)cccc1Cl)C(=O)c1ccccc1S2`, the activation was inactive: -14.8%. With `Cc1cc(C)c(OCC(=O)N(Cc2ccc(N(C)C)cc2)Cc2ccco2)c(C)c1`, the activation is inactive: -17.6%. In the case of `Cc1cc(C)cc(NC(=O)COc2cccc3c(=O)n(C)ccc23)c1`, the activation was active: 85.6%. Turning to `COc1ccc(CCNC(=O)c2ccc(-n3c(C)cc4c3CCC(C)C4)cc2)cc1OC` (centres undefined), the activation is inactive: -7.04%.
